# Experimental data reported in PubChem BioAssay AID652106 (National Center for Advancing Translational Sciences (NCATS), 2013).
# Screen size: about 370,000 compounds; about 500 (0.14%) were called active. Inconclusive results, whose numbers are uncertain, are shown with a selection of clear calls. The call rests on the fitted dose curve; in most records, active means well fitted activation curve with a large enough effect; inconclusive means small, poorly fitted or top-dose-only effect; inactive means no such curve, though single readings can be large or run the other way. Potencies of inconclusive entries are left out as doubtful fits.
# Assay: qHTS of alpha-syn Inhibitors; further: nearly all actives have a fitted effect of over 65% in size
# Details: Yeast expressing alpha-synuclein, BacTiter-Glo, 24 h; Potency: growth rescue unless noted; series mostly up to 46.1 µM
# Source text: The goal of this project is to identify new chemical probes capable of reversing the toxicity associated with the Parkinson disease-related protein, alpha-synuclein. Compounds will be selected on their ability to restore growth in yeast cells expressing toxic levels of alpha-synuclein. These compounds will provide a complementary approach to deciphering the tangled mechanisms of toxicity and protection that we have uncovered through genome-wide genetic screens and are beginning to uncover in a large-scale proteomics analysis with mass spectroscopy. To this end, a miniaturized assay was developed to be screened against the Molecular Libraries Small Molecule Repository (MLSMR) to discover alpha-synuclein inhibitors. Please note that in the set-up this yeast-based assay compounds that inhibit as alpha-syn, have a read-out as activators. NIH Chemical Genomics Center [NCGC] NIH Molecular Libraries Probe Centers Network [MLPCN] MLPCN Grant: NS060957 Assay Submitter (PI): Susan Lindquist, Whitehead Institute/MIT
# Dispense 2.5 microL yeast galactose medium per 1536-well plate, pin compound, dispense 2.5 microL alpha-synuclein expressing yeast in galactose medium at OD600=0.02 (pregrown in raffinose medium to mid-log phase) per well, incubate for 24 hr at 30 deg C, and cell growth will be measured using 5 microL of Bactiter/Glo reagent to entire plate and read using Luminescence Protocol in ViewLux.
# Potency means the concentration at half of the fitted maximal effect; tags describe the fitted curve by direction and shape.
row,Compound,Potency
1,CCNc1nc(NCC)nc(OCC(=O)O)n1,"inconclusive [activator, single point]"
2,O=C(Nc1ccc(Cl)cc1)C1CCCN(c2cnccn2)C1 (stereo not drawn),"inconclusive [activator, single point]"
3,Cc1cccc(COCC(Cc2ccccc2)N2CCN(C(=O)c3cccc(Cl)c3)CCC2=O)c1 (stereo not drawn),"inconclusive [activator, partial curve]"
4,CCCc1cc(=O)oc2c3c(cc(OCC(=O)NCCN4CCOCC4)c12)OC(C)(C)CC3,"inconclusive [activator, single point]"
5,O=C(c1ccc(Sc2cccc(Cl)c2)c([N+](=O)[O-])c1)N1CCN(c2ccccn2)CC1,"inconclusive [activator, single point]"
6,COC(=O)c1c(NC(C)=O)sc(C(=O)Nc2ccccc2C)c1C,"inconclusive [activator, single point]"
7,O=c1cc(O)c2ccc(O)cc2o1,"inconclusive [activator, single point]"
8,O=[N+]([O-])c1ccc(N(CCO)Cc2ccccc2)c([N+](=O)[O-])c1,"inconclusive [activator, single point]"
9,Cn1ccc2c(-c3ccc(C(F)(F)F)cc3)cc3c(c21)C1CCC3O1 (stereo not drawn),inactive
10,CCc1cc2cc(OC)ccc2nc1SCC(=O)Nc1cc(OC)c(OC)cc1C(=O)O,"inconclusive [activator, single point]"
11,COc1ccc(C(O)c2nc(-c3ccc(N(C)C)cc3)cs2)cc1 (stereo not drawn),"inconclusive [activator, partial curve]"
12,CCCCCC(=O)N1C[C@@H](O)[C@H](n2cc(-c3ccc(F)cc3)nn2)C[C@@H]1c1ccc(C)cc1,"inconclusive [activator, single point]"
13,CCCS(=O)(=O)NC(=O)C1(C)CCN(C(=O)c2cccc(C(F)(F)F)c2)C1 (stereo not drawn),"inconclusive [activator, single point]"
14,O=C(NC(=S)N(CCCCO)C1CCCCC1)c1sc2ccccc2c1Cl,"inconclusive [activator, single point]"
15,Cc1ccc(C)c(N(C)S(=O)(=O)c2ccc3[nH]cc(C(=O)NCCN4CCOCC4)c(=O)c3c2)c1,inactive
16,O=C1c2ccsc2SCCN1Cc1ccc(F)cc1,"inconclusive [activator, single point]"
17,COc1ccc(CN(C)C(=O)c2cccc(S(=O)(=O)N3CCCc4ccccc43)c2)c(OC)c1OC,"inconclusive [activator, single point]"
18,COc1cccc(C(C)(O)c2nc(/C=C/c3ccccc3)cs2)c1 (stereo not drawn),"inconclusive [activator, single point]"
19,CCN(CC)C(=O)c1cccc(-c2csc(C(O)(c3ccccc3)C(F)(F)F)n2)c1 (stereo not drawn),"inconclusive [activator, single point]"
20,COc1ccc(NC(=O)Cc2csc(NC(=O)Nc3ccccc3OC)n2)cc1,inactive
21,CC1CC(C)(C)N(C(=O)CN2C(=O)c3ccccc3C2=O)c2ccccc21 (stereo not drawn),"inconclusive [activator, single point]"
22,Cc1cc(C)cc(NC(=S)NC(=O)C2CC2)c1,inactive

row,Compound,Potency
1,Cc1cc(Cl)cc(C)c1OCC(=O)N1CCN(c2ncccn2)CC1,inactive
2,O=C(CCCN1C(=O)/C(=C\c2cccs2)SC1=S)Nc1ccccc1O,"inconclusive [activator, single point]"
3,COCCCNc1ccn2nc(-c3ccccc3)cc2n1,"inconclusive [activator, single point]"
4,COc1cccc(C=C(C(C)=O)C(=O)c2ccccc2)c1,"inconclusive [activator, single point]"
5,CC(CCc1ccccc1)NC(=O)c1cnc(Cl)c(Cl)c1 (stereo not drawn),"inconclusive [activator, single point]"
6,CC(C)C[C@H]1CNC(=S)N1C[C@H]1CCCN1C[C@H](Cc1ccc(O)cc1)N1C[C@H](Cc2ccc(O)cc2)N(CC2CCCCCC2)C1=S,"inconclusive [activator, single point]"
7,Cc1ccc(-c2nc(N3CCN(S(=O)(=O)c4ccc(F)cc4)CC3)c3ccc(Cl)cc3n2)cc1,inactive
8,N/C(=N\C(=S)Nc1ccccc1)c1ccccc1,inactive
9,N#CN=c1snc(-c2ccccc2Cl)n1-c1ccccc1Cl,inactive
10,CCOC(=O)c1cc2ccccc2n1C1CCN(C)CC1,inactive
11,CCOc1ccc(N(C(C)=O)c2nc(C)cc(C)c2C#N)cc1,inactive
12,OC(CNCC1CCCO1)Cn1c2ccc(Cl)cc2c2cc(Cl)ccc21 (stereo not drawn),"inconclusive [activator, single point]"
13,Fc1ccccc1NC(=S)Nc1ccc(Br)cc1,inactive
14,COc1cc(C(=O)Nc2ccc(Cl)c(C(F)(F)F)c2)cc(OC)c1OC,"inconclusive [activator, single point]"
15,CCOc1cc(S(=O)(=O)Nc2ccccc2CC)ccc1Cl,"inconclusive [activator, single point]"
16,C[C@H](NC(=O)c1ccco1)C(=O)Nc1nnc(SCc2ccccc2)s1,"inconclusive [activator, single point]"
17,CC1C(=O)N(Cc2cn(Cc3ccco3)nn2)CCS(=O)(=O)N1Cc1ccc(-c2ccccc2C(F)(F)F)cc1 (stereo not drawn),"inconclusive [activator, single point]"
18,COc1cc(C)c(S(=O)(=O)N2CCCC2)cc1C(C)C,"inconclusive [activator, single point]"
19,CCc1ccc(N2CC(C(=O)Nc3nnc(CC)s3)CC2=O)cc1 (stereo not drawn),"inconclusive [activator, single point]"
20,Cc1cccc(N(CC(O)CON=C2c3ccccc3-c3ccccc32)S(C)(=O)=O)c1 (stereo not drawn),"inconclusive [activator, single point]"
21,Clc1ccc(COn2c(-c3ccc(Cl)cc3)nc3ccccc32)cc1,inactive
